Measured values: the RNAGym collection of RNA variant scans (doi:10.7554/elife.90254)
The source gives no read counts; variants with many changes may rest on few reads.

B1: LINE1-mini (parent)
chain: GGCAGAGCUCAACACAGCGUGGCAAAGUGGCUGUGGCUAGACUGCC

Variants of: B1
Experiment: self-cleavage, relative activity (ratio to wild type); higher = more cleavage; in vitro, sequencing; the parent is a self-cleaving ribozyme

Variant	self-cleavage
G7U C15A C18A G21A	0.08
G7C U9A U32C	0.03
G7U G19U G27C	0.01
G7U G19U U28G G30U C37A	0.02
G7C U32G G40A	0.03
G7U C15A G27U	0
G7U C23U G44U	0.17
G7U C13A A14G	0.08
G7U C8U C23A G27A	0.4
G7C U9G C23A	0.55
G7U A14C C15G A16C G36A	0.01
G7U C8U A12G A14U A25G	0.09
G7U A14C C23U G29C C37A	0.01
G7U C23G A25G	0.01
G7U A16U G29U C46G	0.04
G7C U9C C23G C37U A41C	0.03
G7U A11G A12G A25U C31A U43G	0
G7U G17A G22U G27U G29C C46A	0.07
G7U A26C U43G C46A	0.07
G7C U9C C15U G21C C42G C45U	0.02
G7U C8A U38A	0.06
G7U C15U G30A	0.18
G7U C10U C23G A25G G40C	0.05
G7U G27C G40U	0.41

Variant	self-cleavage
G7C U20G A41U	0.16
G7C U9G G40A U43C C46U	0.01
G7U G22C U32G	0.19
G7U C18U U32G	0.06
G7U C10A C18U	0.03
G7U G22U G33U	0.14
G7U C8U C10U A16G C31U U32G	0.04
G7U C8U C18G G22A G27U U34G	0.02
G7U C8U A16G C37A	0.43
G7U C18A G19C G21C U32G A39C	0.11
G7U C8A G22A C46G	0.88
G7U G22A C46A	0.1
G7U C15A U28G	0.04
G7C U28C C31A	0.07
G7U G27C G30U G33U	0.03
G7U A12C C18G C31G	0
G7U C31A U34A G36U	0.01
G7U A14U G33C U38A	0.19
G7U A11U C13G G27A G30U A39C	0.02
G7U G17A G22U	0.19
G7U G19A G35U C37U	0.03
G7U C8A G33U C37G	0.06
G7U C10U G21A U32C	0.03
G7U G17A C31A	0.14

Variant	self-cleavage
G7U C15A C23G U34A C37U C45U	0.02
G7U G19A U20C A26U	0.03
G7U C45A C46A	0.19
G7U A12U C13G A24U G27A	0.53
G7U A25U G27A G29A A41C	0.05
G7U G17U C42U	0.08
G7U G17U G30U C42A	0.17
G7U C8U U9A	0.34
G7U C10U G17A	0.04
G7U C10G C13A A25C	0.02
G7U C10A A11G C45G	0.01
G7U C13U C23A A24C	0.08
G7U G29C G30A C31G G36U	0.05
G7U A12C U28A	0.01
G7U A14U C18G G19A	0.05
G7U C8G G21A A39C C42G	0.22
G7C U28A U32A	0.05
G7U C10A A26C G33A	0.01
G7U G29C U38G G44A	0.01
G7U A14G G27A G30A C31A U34A U38G C45A	0.07
G7U C10U G19A	0.02
G7C U9A C23A G30A G44A	0.02
G7U G22C C46G	0.08
G7U A26C U28C U38C	0.02

Variant	self-cleavage
G7U C10U G19U U20G U34G C45A	0.06
G7C U20C G22A G33U G44A	0.07
G7U C15U C23G	0.06
G7U C23A C46U	0.14
G7C U20G A25C C31A	0.04
G7U C15U G44C	0.23
G7U C13U G21A U38G	0.01
G7U C31G A39U G40C	0.01
G7U A11U U28C	0
G7U A16G U34C A41G	0.05
G7U C18A U38A U43C	0.03
G7U C31A U43C	0.44
G7U C8U A16U G21U	0.09
G7U C18U G30U A41U	0.15
G7U G27U C46G	0.04
G7U A11C A14C A25U C31U U32C C37U G40A	0
G7U A14C G22U C23A A24G G27A	0.04
G7U G21C G27U	0.02
G7U G22C A26U G30A G35C G40U C45G	0
G7C U9C G33C C42G C46G	0.02
G7U C10U A16G G22A	0.01
G7U G19U G36U	0.04
G7U G19U G36C	0.08
G7C U9G C10G C23U G30U C46U	0.02

Variant	self-cleavage
G7C U32G G33U C37G	0.06
G7U C15A G22U A41G	0.36
G7C U28A U34A G36U G40C U43C	0.02
G7U A24C G30A A41C	0.15
G7U A16C G17C G44U	0.06
G7U G17C A26C C45A	0
G7C U28A U34C G40A G44U	0
G7U C15A G17C A39U G40C	0.29
G7U A12U A41U	0.1
G7U A11U U20C G27A	0.02
G7U C10U A24G G30U C37G	0.02
G7U C8A C13U U43A	0.11
G7U C8A G29C A41G	0.21
G7U C31U U34C U38A	0.38
G7U A14G C31G	0.06
G7U C18A G30U A41U	0.07
G7U C10A C13U C15U G17U C18A G19A	0.05
G7U G29C G36C C37U	0.01
G7U C10G G44U	0.02
G7U C10G G44C	0.01
G7U A11C G17A	0.03
G7U C23U A25C G27A C37G	0
G7C U9A C37G	0.04
G7U C13U A14U C23U	0.09

Variant	self-cleavage
G7C U9C C15U G29A	0.02
G7U C8G A11U G22U C37A C46U	0.01
G7C U20G A26U	0.23
G7U A11U A25U G27C A41G	0.01
G7U C8G A14U A26U U43A	0.16
G7U A16C G27C G30C G36U	0.1
G7U G22A G35U A41C	0.12
G7U C15U C18A C37A U43C	0.08
G7U C15U G36C	0.03
G7U C8G G17U C46G	0.05
G7U A25C G30A A41G	0.05
G7U C37A C46A	0.04
G7U G22U G35A	0.15
G7U A16C G30C	0.06
G7U G17A C23U U32G C46U	0.22
G7U G19A G21C A41C C45A	0.12
G7U C37A A39C C45A	0.13
G7U C13A G21A G22C A41G	0.03
G7C U34C C45A	0.04
G7U G22U A25C	0.06
G7U G19U U32C	0.01
G7U G19A C42G	0.01
G7U A12G G40U	0.1
G7U G21A U28C	0.06

Variant	self-cleavage
G7U C13A G27U G40C	0.17
G7U C10G U43C	0.01
G7U C15U U43C	0.09
G7U A16G G33A G44C	0.07
G7U C10U G40U	0.05
G7U A14U G33U C37G	0.05
G7U G19U G29U G30U	0.75
G7U G22A A26G G30C G40A	0.15
G7U G19U C42A	0.02
G7U G21U A25G A26G C37A	0.08
G7U A12C A16C G27U U34A	0.16
G7U A11G G22C	0.01
G7U A24G A25G A26C C46U	0.03
G7U A12U G27A A41U	0.08
G7U G17C A25G G27A	0.02
G7C U20C G35A C37G	0.02
G7U G22U C23U C46A	0.04
G7C U20C C45A	0.04
G7U C15A G19U G30U U38G A39U	0.1
G7U A24G G33C C42A G44U	0.02
G7U C13A G30A U43A G44C	0.14
G7U A25C C37U	0.02
G7U A26U G36C G44U	0.06
